# Assay results published in the supplement of paper PMC8728848.
# This is one part of the list.
# B1: Clec2 (Mus musculus), Q9JL99 (protein)
# chain: MQDEDGYITLNIKPRKQALSSAEPASSWWRVMALVLLISSMGLVVGLVALGIMSVTQQKYLLAEKENLSATLQQLAKKFCQELIRQSEIKTKSTFEHKCSPCATKWRYHGDSCYGFFRRNLTWEESKQYCTEQNATLVKTASQSTLDYIAERITSVRWIGLSRQNSKKDWMWEDSSVLRKNGINLSGNTEENMNCAYLHNGKIHPASCKERHYLICERNAGMTRVDQLL
# Legend:
# Experiment in all cases: glycan array binding signal (z-score within array); higher = stronger binding
# Conditions in all cases: glycan notation: IUPAC condensed, linker removed
# [1] = biological target: Neu5Ac(a2-6)Gal(b1-4)GlcNAc(b1-3)Gal(b1-4)GlcNAc(b1-3)Gal(b1-4)GlcNAc
# How it was run: (§1)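 The binding signal is a Z-score computed within each array and averaged over linkers. Arrays of the same protein sequence at different concentrations or buffers were also averaged together. Data originate from 3228 arrays in the Consortium for Functional Glycomics database, kept only where the protein sequence was available.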
# [2] = biological target: Neu5Ac(a2-6)Gal(b1-4)GlcNAc(b1-3)Gal(b1-4)GlcNAc(b1-3)Gal(b1-4)GlcNAc(b1-2)Man(a1-3)[Neu5Ac(a2-6)Gal(b1-4)GlcNAc(b1-3)Gal(b1-4)GlcNAc(b1-3)Gal(b1-4)GlcNAc(b1-2)Man(a1-6)]GalNAc
# How it was run: as §1
# [3] = biological target: Neu5Ac(a2-6)Gal(b1-4)GlcNAc(b1-3)Gal(b1-4)GlcNAc(b1-3)GalNAc
# How it was run: as §1
# [4] = biological target: Neu5Ac(a2-6)Gal(b1-4)GlcNAc(b1-3)Gal(b1-4)GlcNAc(b1-3)[Neu5Ac(a2-6)Gal(b1-4)GlcNAc(b1-3)Gal(b1-4)GlcNAc(b1-6)]GalNAc
# How it was run: as §1
# [5] = biological target: Neu5Ac(a2-6)Gal(b1-4)GlcNAc(b1-3)Gal(b1-4)GlcNAc(b1-6)[Gal(b1-3)]GalNAc
# How it was run: as §1
# [6] = biological target: Neu5Ac(a2-6)Gal(b1-4)GlcNAc(b1-3)Gal(b1-4)[Fuc(a1-3)]GlcNAc(b1-3)Gal(b1-4)[Fuc(a1-3)]GlcNAc
# How it was run: as §1
# [7] = biological target: Neu5Ac(a2-6)Gal(b1-4)GlcNAc(b1-3)GalNAc
# How it was run: as §1
# [8] = biological target: Neu5Ac(a2-6)Gal(b1-4)GlcNAc(b1-3)[Neu5Ac(a2-6)Gal(b1-4)GlcNAc(b1-6)]GalNAc
# How it was run: as §1
# [9] = biological target: Neu5Ac(a2-6)Gal(b1-4)GlcNAc(b1-6)GalNAc
# How it was run: as §1
# [10] = biological target: Neu5Ac(a2-6)Gal(b1-4)GlcNAc(b1-6)[Gal(b1-3)GlcNAc(b1-3)]Gal(b1-4)Glc
# How it was run: as §1
# [11] = biological target: Neu5Ac(a2-6)Gal(b1-4)GlcNAc(b1-6)[Gal(b1-3)]GalNAc
# How it was run: as §1
# [12] = biological target: Neu5Ac(a2-6)Gal(b1-4)GlcNAc6S
# How it was run: as §1
# [13] = biological target: Neu5Ac(a2-6)GalNAc
# How it was run: as §1
# [14] = biological target: Neu5Ac(a2-6)GalNAc(b1-4)GlcNAc
# How it was run: as §1
# [15] = biological target: Neu5Ac(a2-6)GalNAc(b1-4)GlcNAc6S
# How it was run: as §1
# [16] = biological target: Neu5Ac(a2-6)GlcNAc(b1-4)GlcNAc
# How it was run: as §1
# [17] = biological target: Neu5Ac(a2-6)GlcNAc(b1-4)GlcNAc(b1-4)GlcNAc
# How it was run: as §1
# [18] = biological target: Neu5Ac(a2-8)Neu5Ac
# How it was run: as §1
# [19] = biological target: Neu5Ac(a2-8)Neu5Ac(a2-3)Gal(b1-3)GalNAc(b1-4)[Neu5Ac(a2-3)]Gal(b1-4)Glc
# How it was run: as §1
# [20] = biological target: Neu5Ac(a2-8)Neu5Ac(a2-3)Gal(b1-3)GalNAc(b1-4)[Neu5Ac(a2-8)Neu5Ac(a2-3)]Gal(b1-4)Glc
# How it was run: as §1
# [21] = biological target: Neu5Ac(a2-8)Neu5Ac(a2-3)Gal(b1-4)Glc
# How it was run: as §1
# [22] = biological target: Neu5Ac(a2-8)Neu5Ac(a2-3)Gal(b1-4)GlcNAc
# How it was run: as §1
# [23] = biological target: Neu5Ac(a2-8)Neu5Ac(a2-3)[Gal(b1-3)GalNAc(b1-4)]Gal(b1-4)Glc
# How it was run: as §1
# [24] = biological target: Neu5Ac(a2-8)Neu5Ac(a2-3)[GalNAc(b1-4)]Gal(b1-4)Glc
# How it was run: as §1
# [25] = biological target: Neu5Ac(a2-8)Neu5Ac(a2-8)Neu5Ac
# How it was run: as §1
# [26] = biological target: Neu5Ac(a2-8)Neu5Ac(a2-8)Neu5Ac(a2-3)Gal(b1-4)Glc
# How it was run: as §1
# [27] = biological target: Neu5Ac(a2-8)Neu5Ac(a2-8)Neu5Ac(a2-3)[Gal(b1-3)GalNAc(b1-4)]Gal(b1-4)Glc
# How it was run: as §1
# [28] = biological target: Neu5Ac(a2-8)Neu5Ac(a2-8)Neu5Ac(a2-3)[GalNAc(b1-4)]Gal(b1-4)Glc
# How it was run: as §1
# [29] = biological target: Neu5Ac(a2-8)Neu5Ac(a2-8)Neu5Ac(a2-8)Neu5Ac(a2-3)[GalNAc(b1-4)]Gal(b1-4)Glc
# How it was run: as §1
# [30] = biological target: Neu5Ac(a2-8)Neu5Gc(a2-3)Gal(b1-4)GlcNAc
# How it was run: as §1
# [31] = biological target: Neu5Ac(b2-6)Gal(b1-4)GlcNAc
# How it was run: as §1
# [32] = biological target: Neu5Ac(b2-6)GalNAc
# How it was run: as §1
# [33] = biological target: Neu5Ac9Ac(a2-3)Gal(b1-3)GlcNAc
# How it was run: as §1
# [34] = biological target: Neu5Ac9Ac(a2-3)Gal(b1-4)GlcNAc
# How it was run: as §1
# [35] = biological target: Neu5Ac9Ac(a2-6)Gal(b1-4)GlcNAc
# How it was run: as §1
# [36] = biological target: Neu5Gc(a2-3)Gal(b1-3)GlcNAc
# How it was run: as §1
# [37] = biological target: Neu5Gc(a2-3)Gal(b1-3)[Fuc(a1-4)]GlcNAc
# How it was run: as §1
# [38] = biological target: Neu5Gc(a2-3)Gal(b1-4)Glc
# How it was run: as §1
# [39] = biological target: Neu5Gc(a2-3)Gal(b1-4)GlcNAc
# How it was run: as §1
# [40] = biological target: Neu5Gc(a2-3)Gal(b1-4)GlcNAc(b1-3)Gal(b1-4)GlcNAc(b1-2)Man(a1-3)[Neu5Gc(a2-3)Gal(b1-4)GlcNAc(b1-3)Gal(b1-4)GlcNAc(b1-2)Man(a1-6)]Man(b1-4)GlcNAc(b1-4)GlcNAc
# How it was run: as §1
# [41] = biological target: Neu5Gc(a2-3)Gal(b1-4)[Fuc(a1-3)]GlcNAc
# How it was run: as §1
# [42] = biological target: Neu5Gc(a2-6)Gal(b1-4)GlcNAc
# How it was run: as §1
# [43] = biological target: Neu5Gc(a2-6)GalNAc
# How it was run: as §1
# [44] = biological target: Neu5Gc(a2-8)Neu5Ac(a2-3)Gal(b1-4)GlcNAc
# How it was run: as §1
# [45] = biological target: Neu5Gc(a2-8)Neu5Gc(a2-3)Gal(b1-4)GlcNAc
# How it was run: as §1
binder,measurement,setting,value
B1,glycan array binding signal (z-score),[1],-0.598
same,glycan array binding signal (z-score),[2],4.45
same,glycan array binding signal (z-score),[3],-0.69
same,glycan array binding signal (z-score),[4],-0.008
same,glycan array binding signal (z-score),[5],-0.808
same,glycan array binding signal (z-score),[6],-0.137
same,glycan array binding signal (z-score),[7],-0.524
same,glycan array binding signal (z-score),[8],-0.848
same,glycan array binding signal (z-score),[9],0.805
same,glycan array binding signal (z-score),[10],-0.654
same,glycan array binding signal (z-score),[11],-0.259
same,glycan array binding signal (z-score),[12],2.24
same,glycan array binding signal (z-score),[13],0.012
same,glycan array binding signal (z-score),[14],-0.445
same,glycan array binding signal (z-score),[15],0.775
same,glycan array binding signal (z-score),[16],-0.572
same,glycan array binding signal (z-score),[17],-1.13
same,glycan array binding signal (z-score),[18],0.004
same,glycan array binding signal (z-score),[19],-0.592
same,glycan array binding signal (z-score),[20],0.041
same,glycan array binding signal (z-score),[21],-0.068
same,glycan array binding signal (z-score),[22],-0.653
same,glycan array binding signal (z-score),[23],-0.245
same,glycan array binding signal (z-score),[24],-0.022
same,glycan array binding signal (z-score),[25],-0.471
same,glycan array binding signal (z-score),[26],-0.316
same,glycan array binding signal (z-score),[27],-0.456
same,glycan array binding signal (z-score),[28],-0.269
same,glycan array binding signal (z-score),[29],-0.202
same,glycan array binding signal (z-score),[30],-0.442
same,glycan array binding signal (z-score),[31],0.023
same,glycan array binding signal (z-score),[32],-0.171
same,glycan array binding signal (z-score),[33],0.778
same,glycan array binding signal (z-score),[34],-0.553
same,glycan array binding signal (z-score),[35],-0.518
same,glycan array binding signal (z-score),[36],-0.366
same,glycan array binding signal (z-score),[37],0.119
same,glycan array binding signal (z-score),[38],-0.112
same,glycan array binding signal (z-score),[39],-0.657
same,glycan array binding signal (z-score),[40],-0.189
same,glycan array binding signal (z-score),[41],0.278
same,glycan array binding signal (z-score),[42],-0.494
same,glycan array binding signal (z-score),[43],-0.517
same,glycan array binding signal (z-score),[44],-0.442
same,glycan array binding signal (z-score),[45],-0.501
